The results in this text go back to patent US11618753B2 (priority 2018, dated 2023).

Structures are written as SMILES.

This experiment concerns MLKL phosphorylation, HT29-L23 human colorectal adenocarcinoma cells. Put plainly: cells. The settings on record: read-out: pMLKL HCS Cell Assay (IC50, uM).
The term IC50 denotes the concentration needed to halve the response being measured. Regarding `Cc1c(F)cc(-c2cc(CN3CC(F)(F)C3)c3c(N)ncnn23)cc1C(=O)N[C@@H]1CN(C(=O)C2CC(F)(F)C2)C[C@@H]1F` [Example 1562, 5-{4-amino-5-[(3,3-difluoroazetidin-1-yl)methyl]pyrrolo[2,1-f][1,2,4]triazin-7-yl}-N-[(3R,4S)-1-(3,3-difluorocyclobutanecarbonyl)-4-fluoropyrrolidin-3-yl]-3-fluoro-2-methylbenzamide], the IC50 turned out to be 0.00055 µM.

Turning to `COc1ncc(-c2cc(CN3CCC(F)(F)CC3)c3c(N)ncnn23)cc1C(=O)N[C@@H]1CN(C(=O)c2ccc(F)c(F)c2)C[C@@H]1F` [Example 1262, 5-{4-amino-5-[(4,4-difluoropiperidin-1-yl)methyl]pyrrolo[2,1-f][1,2,4]triazin-7-yl}-N-[(3R,4S)-1-(3,4-difluorobenzoyl)-4-fluoropyrrolidin-3-yl]-2-methoxypyridine-3-carboxamide], the IC50 was determined as 0.0011 µM.

For `COc1ncc(-c2cc(CN3CCC(F)(F)C3)c3c(N)ncnn23)cc1C(=O)N[C@@H]1CN(C(=O)C2CC(F)(F)C2)C[C@@H]1F` [Example 1581, 5-{4-amino-5-[(3,3-difluoropyrrolidin-1-yl)methyl]pyrrolo[2,1-f][1,2,4]triazin-7-yl}-N-[(3R,4S)-1-(3,3-difluorocyclobutanecarbonyl)-4-fluoropyrrolidin-3-yl]-2-methoxypyridine-3-carboxamide], the IC50 is 0.00095 µM.

With `Cc1cc(F)c(-c2cc(C(F)(F)F)c3c(N)ncnn23)cc1C(=O)N[C@@H]1CN(C(=O)CC(C)(C)O)C[C@@H]1F` [Example 413, 5-[4-amino-5-(trifluoromethyl)pyrrolo[2,1-f][1,2,4]triazin-7-yl]-4-fluoro-N-[(3R,4S)-4-fluoro-1-(3-hydroxy-3-methylbutanoyl)pyrrolidin-3-yl]-2-methylbenzamide], the IC50 was 0.048 µM.

Regarding `Cc1ccc(-c2cc(C(F)(F)F)c3c(N)ncnn23)c(F)c1C(=O)N[C@@H]1CN(C(=O)C(C)C(F)(F)F)C[C@@H]1F` (stereo partly drawn) [Example 751, 3-[4-amino-5-(trifluoromethyl)pyrrolo[2,1-f][1,2,4]triazin-7-yl]-2-fluoro-N-[(3R,4S)-4-fluoro-1-(3,3,3-trifluoro-2-methylpropanoyl)pyrrolidin-3-yl]-6-methylbenzamide], the IC50 amounted to 0.024 µM.

With `COc1ncc(-c2ccc3c(N)ncnn23)cc1C(=O)N[C@@H]1CN(C(=O)C2CC(F)C2)C[C@@H]1F` (stereo partly drawn) [Example 157, 5-{4-aminopyrrolo[2,1-f][1,2,4]triazin-7-yl}-N-[(3R,4S)-4-fluoro-1-(3-fluorocyclobutanecarbonyl)pyrrolidin-3-yl]-2-methoxypyridine-3-carboxamide], the IC50 amounted to 0.156 µM.

Consider `COc1ncc(-c2ccc3c(N)ncnn23)cc1C(=O)NCCC(O)c1ccccc1` (stereo not drawn) [Example 152, 5-{4-aminopyrrolo[2,1-f][1,2,4]triazin-7-yl}-N-(3-hydroxy-3-phenylpropyl)-2-methoxypyridine-3-carboxamide], for which the IC50 was 0.1 µM.

`Cc1ccc(-c2cc(C(F)(F)F)c3c(N)ncnn23)cc1C(=O)Nc1cn(Cc2ccc(F)cc2)cn1` [Example 1803, 5-(4-amino-5-(trifluoromethyl)pyrrolo[2,1-f][1,2,4]triazin-7-yl)-N-(1-(4-fluorobenzyl)-1H-imidazol-4-yl)-2-methylbenzamide]: the IC50 stood at 0.00086 µM.

As to `COc1ncc(-c2cc(C(F)(F)F)c3c(N)ncnn23)cc1C(=O)NC1CN(Cc2ccc3ccccc3n2)CC1F` (racemic) [Example 225, 5-[4-amino-5-(trifluoromethyl)pyrrolo[2,1-f][1,2,4]triazin-7-yl]-N-{4-fluoro-1-[(quinolin-2-yl)methyl]pyrrolidin-3-yl}-2-methoxypyridine-3-carboxamide], the IC50 came out at 0.021 µM.

For `CCc1c(F)cc(-c2cc(C(F)(F)F)c3c(N)ncnn23)cc1C(=O)N[C@@H]1CN(C(=O)C(C)C(F)(F)F)C[C@@H]1F` (stereo partly drawn) [Example 661, 5-[4-amino-5-(trifluoromethyl)pyrrolo[2,1-f][1,2,4]triazin-7-yl]-2-ethyl-3-fluoro-N-[(3R,4S)-4-fluoro-1-(3,3,3-trifluoro-2-methylpropanoyl)pyrrolidin-3-yl]benzamide], the IC50 worked out at 0.026 µM.

On to `Nc1ncnn2c(-c3cc(F)c(Cl)c(C(=O)N[C@@H]4CN(C(=O)C5CC(F)(F)C5)C[C@@H]4F)c3)cc(C(F)(F)F)c12` [Example 635, 5-[4-amino-5-(trifluoromethyl)pyrrolo[2,1-f][1,2,4]triazin-7-yl]-2-chloro-N-[(3R,4S)-1-(3,3-difluorocyclobutanecarbonyl)-4-fluoropyrrolidin-3-yl]-3-fluorobenzamide], for which the IC50 came to 0.0073 µM.

In the case of `COc1ncc(-c2cc(C(F)(F)F)c3c(N)ncnn23)cc1C(=O)NC1CN(Cc2c(C)noc2C)CC1F` (racemic) [Example 209, 5-[4-amino-5-(trifluoromethyl)pyrrolo[2,1-f][1,2,4]triazin-7-yl]-N-{1-[(3,5-dimethyl-1,2-oxazol-4-yl)methyl]-4-fluoropyrrolidin-3-yl}-2-methoxypyridine-3-carboxamide], the IC50 was 0.181 µM.

As for `COc1ncc(-c2cc(C(F)(F)F)c3c(N)ncnn23)cc1C(=O)N[C@@H]1CN(C2CCCC2C)C[C@@H]1F` (stereo partly drawn) [Example 1363, 5-[4-amino-5-(trifluoromethyl)-pyrrolo[2,1-f][1,2,4]triazin-7-yl]-N-[(3R,4S)-4-fluoro-1-(2-methylcyclopentyl)-pyrrolidin-3-yl]-2-methoxy-pyridine-3-carboxamide], the IC50 worked out at 0.026 µM.

Consider `COc1ncc(-c2cc(CN3CCC(F)(F)CC3)c3c(N)ncnn23)cc1C(=O)N[C@@H]1CN(C(=O)O[C@H](C)C2CC2)C[C@@H]1F` [Example 1515, (1R)-1-cyclopropylethyl (3R,4S)-3-(5-{4-amino-5-[(4,4-difluoropiperidin-1-yl)methyl]pyrrolo[2,1-f][1,2,4]triazin-7-yl}-2-methoxypyridine-3-amido)-4-fluoropyrrolidine-1-carboxylate], for which the IC50 was 0.0015 µM.

As to `CC(C)CC(=O)N1C[C@H](F)[C@H](NC(=O)c2cc(F)cc(-c3cc(C(F)(F)F)c4c(N)ncnn34)c2)C1` [Example 601, 3-[4-amino-5-(trifluoromethyl)pyrrolo[2,1-f][1,2,4]triazin-7-yl]-5-fluoro-N-[(3R,4S)-4-fluoro-1-(3-methylbutanoyl)pyrrolidin-3-yl]benzamide], the IC50 was found to be 0.017 µM.

As for `COc1ncc(-c2cc(C(F)(F)F)c3c(N)ncnn23)cc1C(=O)NC1CN(Cc2cccc(C(F)(F)F)c2)CC1F` (racemic) [Example 228, 5-[4-amino-5-(trifluoromethyl)pyrrolo[2,1-f][1,2,4]triazin-7-yl]-N-(4-fluoro-1-{[3-(trifluoromethyl)phenyl]methyl}pyrrolidin-3-yl)-2-methoxypyridine-3-carboxamide], the half-inhibitory concentration (IC50) is 0.174 µM.

Turning to `COc1ncc(-c2cc(C(F)(F)F)c3c(N)ncnn23)cc1C(=O)N[C@@H]1CN(C(=O)C(N)(CC(C)C)C(F)(F)F)C[C@@H]1F` (stereo partly drawn) [Example 1677, N-((3R,4S)-1-(2-amino-4-methyl-2-(trifluoromethyl)pentanoyl)-4-fluoropyrrolidin-3-yl)-5-(4-amino-5-(trifluoromethyl)pyrrolo[2,1-f][1,2,4]triazin-7-yl)-2-methoxynicotinamide], the half-maximal inhibitory concentration (IC50) worked out at 0.01 µM.

With `Cc1ccc(-c2cc(C(F)(F)F)c3c(N)ncnn23)c(F)c1C(=O)N[C@@H]1CN(C(=O)CC(C(F)(F)F)C(F)(F)F)C[C@@H]1F` [Example 761, 3-[4-amino-5-(trifluoromethyl)pyrrolo[2,1-f][1,2,4]triazin-7-yl]-2-fluoro-N-[(3R,4S)-4-fluoro-1-[4,4,4-trifluoro-3-(trifluoromethyl)butanoyl]pyrrolidin-3-yl]-6-methylbenzamide], the IC50 was 0.0059 µM.

`Cc1ccc(-c2cc(C(F)(F)F)c3c(N)ncnn23)cc1C(=O)N[C@@H]1CN(C(=O)c2cc(C#N)ccc2F)C[C@@H]1F` [Example 1035, 5-[4-amino-5-(trifluoromethyl)pyrrolo[2,1-f][1,2,4]triazin-7-yl]-N-[(3R,4S)-1-(5-cyano-2-fluorobenzoyl)-4-fluoropyrrolidin-3-yl]-2-methylbenzamide]: the IC50 came out at 0.0032 µM.

In the case of `COc1ncc(-c2cc(C(=O)NCCO)c3c(N)ncnn23)cc1C(=O)N1CCC[C@@H](Cc2ccc(F)cc2)C1` [Example 469, 4-amino-7-{5-[(3S)-3-[(4-fluorophenyl)methyl]piperidine-1-carbonyl]-6-methoxypyridin-3-yl}-N-(2-hydroxyethyl)pyrrolo[2,1-f][1,2,4]triazine-5-carboxamide], the IC50 was determined as 0.079 µM.

As to `Cc1cc(F)c(-c2cc(C(F)(F)F)c3c(N)ncnn23)cc1C(=O)N[C@@H]1CN(C(=O)c2cccc(F)c2)C[C@@H]1F` [Example 826, 5-[4-amino-5-(trifluoromethyl)pyrrolo[2,1-f][1,2,4]triazin-7-yl]-4-fluoro-N-[(3R,4S)-4-fluoro-1-(3-fluorobenzoyl)pyrrolidin-3-yl]-2-methylbenzamide], the IC50 amounted to 0.0024 µM.

`Nc1ncnn2c(-c3cccc(C(=O)N[C@@H]4CN(C(=O)c5cccc(F)c5)C[C@@H]4F)c3)cc(C(F)(F)F)c12` [Example 92, 3-[4-amino-5-(trifluoromethyl)pyrrolo[2,1-f][1,2,4]triazin-7-yl]-N-[(3R,4S)-4-fluoro-1-(3-fluorobenzoyl)pyrrolidin-3-yl]benzamide]: the IC50 came to 0.027 µM.

As to `Nc1ncnn2c(-c3ccc(Cl)c(C(=O)N[C@@H]4CN(C(=O)C5CCC(F)(F)CC5)C[C@@H]4F)c3)cc(CN3CCC(F)(F)CC3)c12` [Example 1147, 5-{4-amino-5-[(4,4-difluoropiperidin-1-yl)methyl]pyrrolo[2,1-f][1,2,4]triazin-7-yl}-2-chloro-N-[(3R,4S)-1-(4,4-difluorocyclohexanecarbonyl)-4-fluoropyrrolidin-3-yl]benzamide], the IC50 turned out to be 0.0011 µM.

Take `COc1ncc(-c2cc(C(F)(F)F)c3c(N)ncnn23)cc1C(=O)NC1CN(S(=O)(=O)c2ccccc2)C[C@@H]1F` (stereo partly drawn) [Example 507, 5-[4-amino-5-(trifluoromethyl)pyrrolo[2,1-f][1,2,4]triazin-7-yl]-N-[(3R,4S)-4-fluoro-1-(pyridine-3-sulfonyl)pyrrolidin-3-yl]-2-methoxypyridine-3-carboxamide]: the IC50 was found to be 0.033 µM.
